Results taken from patent US20050065082A1 (published 2005).
Blank lines part the entries; values can stand above or below the binder they belong to.

Experiments:
[1] = biological target: MBP (maltose binding protein) (UniProt P0AEX9 = MBP); test: far-Western (spot on nitrocellulose, anti-MBP antiserum detection)
Protocol: (§1) After spotting 1 μg of GST or GST-KIAA0596CT on nitrocellulose membranes (Schleicher & Schuell BioScience, BA85), the membranes were incubated at room temperature in TBST (10 mM Tris-HCl, pH 7.5/0.15M NaCl/0.05% Tween 20) containing 5% skim milk. After rinsing the membranes with TBST, they were incubated overnight at 4° C. in TBST containing 1.0 μg/ml of MBP-JNK3 or MBP. After washing the membranes with TBST, bound MBP-JNK3 was detected by immunoblotting using anti-MBP antiserum (New England Biolabs Inc.) as the primary antibody, and HRP-conjugated anti-rabbit IgG antibody (Amersham Pharmacia Biotech, Inc.) as the secondary antibody (FIG. 5). An ECL Western Blotting Detection Kit (Amersham Pharmacia Biotech, Inc.) was used for the detection.

[2] = biological target: MBP-JNK3 (fusion protein of human JNK3 (JNK3α1) with an N-terminal maltose binding protein) (human, UniProt P53779-2 1-422, limits assumed); test: as above
Protocol: as §1

binding result [1]: no binding
B1: GST-KIAA0596CT (N-terminal GST fusion protein of human KIAA0596CT, the C-terminal region, […], of KIAA0596) (other)
chain: [about 200 residues omitted]LSQEEGVFAQDLEPAPIEDGIVYPEPSDNPTMDTSEFQVQAPARGTLGRVYPGSRSSEKHSPDSACSVDYSSSCLSSPEHPTEDSESTEPLSVDGISSDLEEPAEGDEEEEEEEGGMGPYGLQEGSPQTPDQEQFLKQHFETLASGAAPGAPVQVPERSESRSISSRFLLQVQTRPLREPSPSSSSLALMSRPAQVPQASGEQPRGNGANPPGAPPEVEPSSGNPSPQQAASVLLPRCRLNPDSSWAPKRVATASPFSGLQKAQSVHSLVPQERHEASLQAPSPGALLSREIEAQDGLGSLPPADGPPSRPHSYQNPTTSSMAKISRSISVGENLGLVAEPQAHAPIRVSPLSKLALPSRAHLVLDIPKPLPDRPTLAAFSPVTKGRAPGEAEKPGFPVGLGKAHSTTERWACLGEGTTPKPRTECQAHPGPSSPCAQQLPVSSLFQGPENLQPPPPEKTPNPMECTKPGAALSQDSAVSLEQCEQLVAELRGSVRQAVRLYHSVAGCKMPSAEQSRIAQLLRDTFSSVRQELEAVAGAVLSSPGSSPGAVGAEQTQALLEQYSELLLRAVERRMERKL
notes: Expressed in E. coli BL21-SI from pDEST15 and purified on Glutathione Sepharose 4B; also called fusion protein of KIAA0596CT and GST

B2: GST (glutathione S-transferase) (other)
chain: not shown
notes: Negative control in the far-Western assay and in all kinase assays
binding result [2]: no binding (tested: 1.0 µg/ml of MBP-JNK3; 1 µg GST spotted)
